{
  "source": "PubChem BioAssay AID504339",
  "about": "(National Center for Advancing Translational Sciences (NCATS), 2011)",
  "note": "The campaign covered roughly 390,000 compounds. About 17,000 (4.4%) were called active. Inconclusive means that the source gave no clear call. Such entries were picked first, then a sample of the others. Calls come from the whole dose curve; as a rule, active = well fitted inhibition curve with a large enough effect; inconclusive = small, poorly fitted or top-dose-only effect; inactive = no such curve, though single readings can be large or run the other way. A potency beside an inconclusive call is a rough fit, not a confirmed value. Potency is the fitted concentration of half-maximal effect; tags give direction and shape of the fitted curve.",
  "data": [
    {"target": "Lysine-specific demethylase 4A (Homo sapiens) (UniProt O75164)", "sequence (O75164 whole entry, looked up, the tested form may be a part)": "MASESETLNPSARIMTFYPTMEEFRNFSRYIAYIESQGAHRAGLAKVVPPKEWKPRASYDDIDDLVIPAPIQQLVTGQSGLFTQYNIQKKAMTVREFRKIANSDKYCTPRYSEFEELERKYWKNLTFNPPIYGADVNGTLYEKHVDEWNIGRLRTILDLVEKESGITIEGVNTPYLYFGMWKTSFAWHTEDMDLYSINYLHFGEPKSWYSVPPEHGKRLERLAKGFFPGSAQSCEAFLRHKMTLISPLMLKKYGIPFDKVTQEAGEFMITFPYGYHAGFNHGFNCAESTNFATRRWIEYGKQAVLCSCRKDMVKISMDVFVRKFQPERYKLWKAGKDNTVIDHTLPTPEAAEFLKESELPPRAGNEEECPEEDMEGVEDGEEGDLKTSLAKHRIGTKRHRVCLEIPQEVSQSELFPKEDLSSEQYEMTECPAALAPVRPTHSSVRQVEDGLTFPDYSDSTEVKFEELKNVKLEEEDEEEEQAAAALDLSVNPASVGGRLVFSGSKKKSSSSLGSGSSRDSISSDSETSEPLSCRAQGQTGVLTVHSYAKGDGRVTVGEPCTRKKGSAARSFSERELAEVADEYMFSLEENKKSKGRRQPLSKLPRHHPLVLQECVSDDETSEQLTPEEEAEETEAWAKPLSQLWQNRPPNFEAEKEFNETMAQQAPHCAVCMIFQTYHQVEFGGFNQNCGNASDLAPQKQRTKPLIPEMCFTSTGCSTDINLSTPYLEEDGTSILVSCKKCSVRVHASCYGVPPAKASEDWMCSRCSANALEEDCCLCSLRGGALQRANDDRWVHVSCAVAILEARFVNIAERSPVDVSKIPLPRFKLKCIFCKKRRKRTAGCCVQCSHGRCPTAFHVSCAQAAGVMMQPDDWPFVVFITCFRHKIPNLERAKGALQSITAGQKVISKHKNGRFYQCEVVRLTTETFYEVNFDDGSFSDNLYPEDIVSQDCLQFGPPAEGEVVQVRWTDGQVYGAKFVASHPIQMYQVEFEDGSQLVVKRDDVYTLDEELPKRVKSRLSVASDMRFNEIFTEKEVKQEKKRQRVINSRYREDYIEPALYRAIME", "experiment": "qHTS Assay for Inhibitors of JMJD2A-Tudor Domain; note: nearly all actives have a fitted effect of over 50% in size", "conditions": "AlphaScreen JMJD2A-Tudor / H3K4me3 peptide binding; series mostly up to 114 µM", "values": [
      {"compound": "Cc1ccc(C)c(C(=O)COC(=O)c2cc([N+](=O)[O-])ccc2NCCO)c1", "Potency": "inconclusive: 25.1 µM [inhibitor, full curve, poor fit]"},
      {"compound": "c1ccc2c(CCNc3ncnc4nc[nH]c34)c[nH]c2c1", "Potency": "inconclusive: 35.5 µM [inhibitor, partial curve]"},
      {"compound": "COc1ccccc1/C=N/NC(=O)c1ccc(-c2ccccc2)cc1", "Potency": "inactive"},
      {"compound": "COc1ccc2nc(-c3ccco3)c(-c3ccco3)nc2c1", "Potency": "inconclusive: 89.1 µM [inhibitor, single point]"},
      {"compound": "O=C1C=Cc2cccc3ccc(O)c1c23", "Potency": "inactive"},
      {"compound": "COc1ccc(/C=C/C(=O)ONC2=NCCCCC2)cc1OC", "Potency": "inactive"},
      {"compound": "O=C1/C(=C/c2ccc(F)cc2)SC(=S)N1CC(=O)N1CCCCC1c1cccnc1", "note": "(centres undefined)", "Potency": "inconclusive: 2.51 µM [inhibitor, partial curve, poor fit]"},
      {"compound": "Cc1ccc(S(=O)(=O)NNC(=O)c2cc(C)c(C)cc2N)cc1", "Potency": "inactive"},
      {"compound": "CC1=C(C)C(=O)N(c2ccccn2)C1=O", "Potency": "inactive"},
      {"compound": "CCCN1CCN(c2nnc(-n3cccc3C(=O)Nc3cc(Cl)ccc3C)s2)CC1", "Potency": "inconclusive: 56.2 µM [inhibitor, partial curve]"},
      {"compound": "c1ccc(CCNc2ccc3c(c2)Cc2ccccc2-3)nc1", "Potency": "inconclusive: 3.98 µM [inhibitor, full curve]"},
      {"compound": "O=C(CN1C(=O)C2CC=CCC2C1=O)Nc1nccs1", "note": "(centres undefined)", "Potency": "inactive"},
      {"compound": "Cc1cc(C(=O)CN2C(=O)C(=O)N(CCC3=CCCCC3)C2=O)c(C)n1C", "Potency": "inconclusive: 44.7 µM [inhibitor, partial curve]"},
      {"compound": "COCCCNC(=O)/C(C#N)=C/c1c(N2CCN(c3cccc(Cl)c3)CC2)nc2c(C)cccn2c1=O", "Potency": "inconclusive: 44.7 µM [inhibitor, partial curve]"},
      {"compound": "CCOC(=O)c1[nH]cnc1C(=O)Nc1cccc(OC)c1", "Potency": "inconclusive: 3.16 µM [inhibitor, full curve]"},
      {"compound": "COc1cc(/C=N/NC(=O)C(Cc2c[nH]c3ccccc23)NC(=O)OCC(C)C)cc([N+](=O)[O-])c1O", "note": "(centres undefined)", "Potency": "inconclusive: 50.1 µM [inhibitor, partial curve]"},
      {"compound": "O=C(O)C1=NN(c2c(F)c(F)cc(F)c2F)C(=O)CC1", "Potency": "inconclusive: 11.2 µM [inhibitor, partial curve, poor fit]"},
      {"compound": "CCOc1ccccc1-c1nc(-c2ccc(NC(=O)Cc3ccc(OC)cc3)cc2)no1", "Potency": "inconclusive: 70.8 µM [inhibitor, partial curve]"},
      {"compound": "O=C(NCc1ccco1)C1CC(c2ccccc2O)=NO1", "note": "(centres undefined)", "Potency": "inconclusive: 3.55 µM [inhibitor, single point]"}
    ]}
  ]
}
